Measured values taken from the supplement of paper PMC3334620.
Over roughly 33,000 sequences, “E-score (-0.5 to 0.5)” has its median near -0.04; the highest 2% begin near 0.36. This is one part of the list.

These sequences were tested against T1, Hmlalpha2 (UniProt P0CY09) (assay: PBM E-score (8-mer binding enrichment) (E-score (-0.5 to 0.5)); higher = stronger / more preferred TF binding; most listed sequences are background and not binding sites). Conditions: protein concentration: 200 nM; construct: GST-full length.
T1 sequence: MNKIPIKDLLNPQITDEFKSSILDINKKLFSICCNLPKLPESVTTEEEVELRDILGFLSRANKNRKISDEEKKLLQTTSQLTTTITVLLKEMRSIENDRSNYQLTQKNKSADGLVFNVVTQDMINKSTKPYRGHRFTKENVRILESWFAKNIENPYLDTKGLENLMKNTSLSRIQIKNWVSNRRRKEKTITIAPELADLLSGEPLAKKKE
In short: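 Full-length yeast transcription factors or their DNA-binding domains, GST-tagged and expressed with PURExpress, were applied at about 100-200 nM to universal all-10-mer Agilent arrays. These arrays had been made double-stranded by primer extension on fresh or once-stripped slides. Detection used fluorescent anti-GST, normalisation used masliner, and E-scores for ungapped eight-base words pooled with reverse complements came from the Universal PBM Analysis Suite.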

Sequence | PBM E-score
CGACTAAG | -0.108
GGCACACC | -0.343
GTATTTAA | 0.342
CAGGATGC | -0.19
AAGCATGC | 0.117
AGCTGTGC | -0.0346
GAAAAGAA | 0.00784
AGGGCCGA | -0.239
ACGCGGCA | 0.0388
CGGTAGCA | -0.0327
AAGTAAAT | 0.341
ATGGACAC | 0.14
CTGCTTTC | -0.191
GAGGATAA | -0.0761
ACTGAACA | 0.192
AGGGCTGA | -0.0502
AGGTAGCG | -0.0962
TACACATA | 0.408
ACGCCGGC | -0.124
GCATATGC | -0.119
AGCAAGAG | -0.0688
AGAATGTA | 0.27
GGTTGCAA | 0.059
CCCGAACA | -0.123

Sequence | PBM E-score
ATTGGTTA | 0.145
AATAGCCC | -0.116
AACTGCTT | -0.164
CGGAAATA | -0.0562
TACGCGGA | 0.312
ACGCCGCG | 0.00844
CGAAATTC | -0.0848
AAGTACCT | 0.0583
ATGCTGGC | 0.0473
ACGATCAC | -0.02
CGTCCCGA | -0.229
CCCTAGAA | -0.0707
ACACGTAT | 0.369
CAGAACGG | -0.0445
GACTATAA | -0.0236
AACCACCC | -0.288
ACTGATCC | 0.0264
GCAAAACC | -0.272
AAACAAAT | 0.23
CTGAAACC | -0.0244
AATCACAG | 0.1
CAATTACG | 0.349
CTACCGAC | -0.135
ATTTTGAC | 0.245

Sequence | PBM E-score
AAAACGGT | -0.0483
GCCCAGCC | -0.296
ACATACGC | 0.314
GGCGTAAC | -0.0908
AAATACTT | 0.208
ATGATACA | 0.269
ACTGAATA | 0.0738
AACCCGCT | -0.252
AACGACTA | 0.168
AGAGACCA | -0.139
CTTAGGTA | 0.0231
CGAGGTAA | 0.0107
TCCGGCAA | -0.0191
TGTAAGAA | 0.391
CAATCACG | 0.0452
AATAATGG | -0.0485
TAACTAGA | 0.17
GGTAGATA | -0.00887
CGGTTATC | -0.179
ATAAACAG | 0.0861
CACACAAC | 0.27
ACTGCCGA | -0.0659
GCTACAGC | -0.125
GATTGGCC | -0.226

Sequence | PBM E-score
AAACAGTT | -0.00224
GCCCCCCA | -0.349
ACTTTTCT | -0.145
ATGCTGCA | 0.0587
AAGACTCA | -0.146
AGTTGCAA | 0.121
ACGCACTC | 0.128
AAACTTGA | 0.00597
AGTAGCAT | -0.00144
AAGAGCCT | -0.187
AACGTGTG | 0.233
ATGCTAAG | 0.027
CTCCAATC | -0.344
CAGACACG | 0.0667
GCCCAACC | -0.0785
ATATTGTC | 0.0872
TCTTAAGA | -0.132
ATATCTAA | 0.0783
AAATCGGG | -0.138
CTCGGAGA | -0.267
GTCAGATA | -0.0706
ACGCTCAC | 0.00619
GATACAGC | -0.1
CTGATTGC | -0.187

Sequence | PBM E-score
GAACTACC | -0.0864
ATCATAGC | 0.0754
AGAACAGC | 0.145
GAACACGC | 0.299
CTAATCTA | 0.021
CTGCTGAC | -0.0195
GTCCTAGA | -0.00893
TGACGTCA | 0.182
AAACCATG | 0.0233
ACCTTTCA | -0.0854
ACGCGGCG | 0.172
GACGATCC | -0.195
CTATGGGA | -0.161
AAGTGCCC | -0.313
CGAAGACC | -0.173
ATCCCCGG | -0.195
AGTCGCCA | -0.351
CTCTTAAG | -0.112
CTTTGAGC | -0.252
ATGCCCAT | -0.0573
CATCGTCG | -0.171
ACTGCACA | 0.0941
GGGAAGAA | -0.0643
ACACAAGG | 0.278

Sequence | PBM E-score
ATAGGTCG | -0.253
ATCCTGCG | 0.0722
CATTATTC | -0.0447
TCCTTCCA | -0.213
GCACCCGC | -0.0473
CTCACCGC | -0.0262
AGGGTGAT | -0.155
CGAATCGC | -0.169
AGACAGCT | -0.108
AGTTAATA | 0.271
CATGACCG | 0.0936
CTTGAGAC | -0.193
CACGAATG | 0.214
ATAGGTAA | 0.177
AGACCTCT | -0.148
ACGCCTTC | -0.131
ACTGCACT | -0.0202
CGCAAAAC | 0.153
ACCGGCGT | 0.0886
TCGCTACA | 0.0793
ATGAATGC | 0.128
CTCATAAC | 0.00391
ATGACAAT | 0.142
CGCCTCTC | -0.35

Sequence | PBM E-score
GAATGCTC | -0.225
CAGGCTGA | -0.194
CCACCAAC | -0.0648
TAAAGACA | 0.178
ACATGAAC | 0.366
ATCACAGG | 0.00303
TGCTCCAA | 0.0122
CCATAGGC | -0.22
ACGAGCTG | -0.0211
CTTCTGAC | -0.119
CAAGCGCA | 0.169
AAATTTAA | 0.222
GAGCATAA | -0.00322
AATTTCTG | -0.0339
GTTCTGCA | 0.104
ATACGTAG | 0.257
ACTCAGCC | -0.256
CCGTGCTA | 0.101
GTATTCAC | 0.318
TCTCGTAA | 0.256
ATGCTACG | 0.123
AAACGTAC | 0.0534
CCCAGTCG | -0.221
CGCATTGA | 0.0737

Sequence | PBM E-score
ATTCAGGG | -0.063
CGGATGAC | -0.0916
CTCTGAAC | -0.193
CGCTTGAC | -0.0157
CGTATTAC | 0.36
GAGTTTAA | 0.0923
GACCCTAA | -0.195
ACTTCTTC | 0.0141
GAGCAAGC | -0.165
AACTACAG | 0.0948
AAGGTCAC | 0.00487
CCCCTCTA | -0.0286
CCTGCTGA | 0.0477
TCAGAAAA | 0.00596
AGGGGGAA | -0.148
AATCTAGT | 0.0538
AAGGTTGA | 0.0182
CCGAACAA | -0.0466
CGTTCACA | 0.213
CTCAGCAG | -0.149
CACCAGGA | -0.239
TACGGTGA | -0.0101
AAGGACTA | -0.0799
CTCTGCCC | -0.109

Sequence | PBM E-score
GCCAGGGC | -0.197
CGCCCTCC | -0.288
AGCGGGCC | -0.243
CGAGGGGC | -0.191
CCCACTCG | -0.187
ACCTTTCC | -0.146
ATTAGTTC | 0.073
AAAAGTTG | 0.0297
TAGGGCCA | -0.13
TAGGCTGA | -0.133
CGCCAATC | -0.0938
CAAACTCA | 0.189
ACCGTCAG | -0.247
CGCAGGAC | -0.159
CATATATG | 0.155
TACTTGGA | 0.255
ATACAGCA | 0.176
GTGACGGA | -0.201
CAGCCGGG | -0.171
CGCGACTA | 0.0239
GGCCCTGA | -0.143
TATGTTAA | 0.459
AATGTCAT | 0.178
AAAAGACT | -0.0487

Sequence | PBM E-score
CGCTCTAA | 0.0196
GACGAGAC | -0.139
TAGAGTCA | -0.178
GTTTTCCA | 0.233
ATGCTCCC | -0.173
ATCGGACG | -0.242
ACTAGCGG | -0.131
GGTGAAGA | -0.202
CAAGGAAA | -0.269
AATCTCGC | 0.132
CTAGCCAG | -0.21
CAGCATTA | 0.109
AAGCACAA | 0.0738
GGCTATAC | 0.0523
AACTTTTG | 0.0612
AGGTGAAC | -0.0916
GAATCCGA | -0.156
GATGTGGA | -0.0421
ACCTAACT | 0.00114
CTTCGTAC | -0.13
ATCATTCC | -0.165
GACCCCCA | -0.381
CCTCAACG | -0.0611
CTACAAAC | 0.172

Sequence | PBM E-score
ACGTGATC | 0.172
ATGTTCGG | 0.0295
CAAACATA | 0.118
AGACCAAA | -0.1
CTATACTA | 0.126
AAGGAGAG | -0.222
GCAATTAA | 0.121
AAACGTAG | 0.205
AAGGACTC | -0.288
AACAGTTG | -0.186
ACCCGCCT | -0.0559
ATTAGCGC | 0.0131
ATCCACTC | 0.00482
TCGAGCCA | -0.0274
AGTGAGGG | -0.316
CGGAAACG | -0.111
CTCCAGTC | -0.29
ACCTTTTG | -0.172
ACGGCATA | 0.0529
GCTATCAC | -0.0124
GTACGCGA | 0.19
TGGCCACA | -0.0398
ACAAATTG | 0.156
CCTGGTTA | -0.0669

Sequence | PBM E-score
ATATCCGG | -0.0407
TCTCAGCA | -0.113
TATTCGGA | 0.121
GAACCGGA | -0.0347
TGGGCGAA | 0.0165
CGACCGAC | -0.00205
AGGATGCA | -0.0473
AGTAATCA | 0.199
ATCCGTTA | 0.214
CAAAGACA | 0.22
GAACGCAC | 0.0864
ACGTCCTA | -0.0289
CCACTCGC | -0.162
TACGCACA | 0.277
CAGTCGGG | -0.0544
CGCTGGGC | -0.206
ACAAATAA | 0.279
CGATCGCA | 0.0423
AGGTCCGC | -0.326
GGACCTGA | -0.235
AAAGCTAA | 0.109
ATGCAGGG | -0.0853
